Data: the supplement of paper PMC8728848
Some of the results follow.

Legend:
Assay in all cases: glycan array binding signal (z-score within array); higher = stronger binding
Conditions in all cases: glycan notation: IUPAC condensed, linker removed
[1] = molecular target: GlcNAc(b1-3)Gal(b1-4)GlcNAc
Procedure, shortened: (§1)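 Glycan array binding is given as a within-array Z-score, which can be read as non-binding when negative. The arrays, 3228 of them, came from the Consortium for Functional Glycomics database and were retained only where the protein sequence was available. Z-scores were averaged across arrays of the same protein sequence at different concentrations or buffers and across linkers.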

[2] = molecular target: GlcNAc(b1-3)Gal(b1-4)GlcNAc(b1-2)Man(a1-3)[GlcNAc(b1-3)Gal(b1-4)GlcNAc(b1-2)Man(a1-6)]Man(b1-4)GlcNAc(b1-4)GlcNAc
Procedure, shortened: as §1

[3] = molecular target: GlcNAc(b1-3)Gal(b1-4)GlcNAc(b1-2)Man(a1-3)[GlcNAc(b1-3)Gal(b1-4)GlcNAc(b1-2)Man(a1-6)]Man(b1-4)GlcNAc(b1-4)[Fuc(a1-6)]GlcNAc
Procedure, shortened: as §1

[4] = molecular target: GlcNAc(b1-3)Gal(b1-4)GlcNAc(b1-2)[GlcNAc(b1-3)Gal(b1-4)GlcNAc(b1-6)]Man(a1-6)[GlcNAc(b1-3)Gal(b1-4)GlcNAc(b1-2)Man(a1-3)]Man(b1-4)GlcNAc(b1-4)GlcNAc
Procedure, shortened: as §1

[5] = molecular target: GlcNAc(b1-3)Gal(b1-4)GlcNAc(b1-3)Gal(b1-4)GlcNAc
Procedure, shortened: as §1

[6] = molecular target: GlcNAc(b1-3)Gal(b1-4)GlcNAc(b1-3)Gal(b1-4)GlcNAc(b1-2)Man(a1-3)[GlcNAc(b1-3)Gal(b1-4)GlcNAc(b1-3)Gal(b1-4)GlcNAc(b1-2)Man(a1-6)]Man(b1-4)GlcNAc(b1-4)GlcNAc
Procedure, shortened: as §1

[7] = molecular target: GlcNAc(b1-3)Gal(b1-4)GlcNAc(b1-3)Gal(b1-4)GlcNAc(b1-2)Man(a1-3)[GlcNAc(b1-3)Gal(b1-4)GlcNAc(b1-3)Gal(b1-4)GlcNAc(b1-2)Man(a1-6)]Man(b1-4)GlcNAc(b1-4)[Fuc(a1-6)]GlcNAc
Procedure, shortened: as §1

[8] = molecular target: GlcNAc(b1-3)Gal(b1-4)GlcNAc(b1-3)Gal(b1-4)GlcNAc(b1-2)[GlcNAc(b1-3)Gal(b1-4)GlcNAc(b1-3)Gal(b1-4)GlcNAc(b1-6)]Man(a1-6)[GlcNAc(b1-3)Gal(b1-4)GlcNAc(b1-3)Gal(b1-4)GlcNAc(b1-2)Man(a1-3)]Man(b1-4)GlcNAc(b1-4)[Fuc(a1-6)]GlcNAc
Procedure, shortened: as §1

[9] = molecular target: GlcNAc(b1-3)Gal(b1-4)GlcNAc(b1-3)Gal(b1-4)GlcNAc(b1-3)Gal(b1-4)GlcNAc(b1-2)Man(a1-3)[GlcNAc(b1-3)Gal(b1-4)GlcNAc(b1-3)Gal(b1-4)GlcNAc(b1-3)Gal(b1-4)GlcNAc(b1-2)Man(a1-6)]Man(b1-4)GlcNAc(b1-4)GlcNAc
Procedure, shortened: as §1

[10] = molecular target: GlcNAc(b1-3)Gal(b1-4)GlcNAc(b1-3)Gal(b1-4)GlcNAc(b1-3)Gal(b1-4)GlcNAc(b1-2)Man(a1-3)[GlcNAc(b1-3)Gal(b1-4)GlcNAc(b1-3)Gal(b1-4)GlcNAc(b1-3)Gal(b1-4)GlcNAc(b1-2)Man(a1-6)]Man(b1-4)GlcNAc(b1-4)[Fuc(a1-6)]GlcNAc
Procedure, shortened: as §1

[11] = molecular target: GlcNAc(b1-3)Gal(b1-4)GlcNAc(b1-3)Gal(b1-4)GlcNAc(b1-3)Gal(b1-4)GlcNAc(b1-2)[GlcNAc(b1-3)Gal(b1-4)GlcNAc(b1-3)Gal(b1-4)GlcNAc(b1-3)Gal(b1-4)GlcNAc(b1-6)]Man(a1-6)[GlcNAc(b1-3)Gal(b1-4)GlcNAc(b1-3)Gal(b1-4)GlcNAc(b1-3)Gal(b1-4)GlcNAc(b1-2)Man(a1-3)]Man(b1-4)GlcNAc(b1-4)[Fuc(a1-6)]GlcNAc
Procedure, shortened: as §1

[12] = molecular target: GlcNAc(b1-3)Gal(b1-4)GlcNAc(b1-3)Gal(b1-4)GlcNAc(b1-3)Gal(b1-4)GlcNAc(b1-3)Gal(b1-4)GlcNAc(b1-2)Man(a1-3)[GlcNAc(b1-3)Gal(b1-4)GlcNAc(b1-3)Gal(b1-4)GlcNAc(b1-3)Gal(b1-4)GlcNAc(b1-3)Gal(b1-4)GlcNAc(b1-2)Man(a1-6)]Man(b1-4)GlcNAc(b1-4)GlcNAc
Procedure, shortened: as §1

[13] = molecular target: GlcNAc(b1-3)Gal(b1-4)GlcNAc(b1-3)Gal(b1-4)GlcNAc(b1-3)Gal(b1-4)GlcNAc(b1-3)Gal(b1-4)GlcNAc(b1-2)Man(a1-3)[GlcNAc(b1-3)Gal(b1-4)GlcNAc(b1-3)Gal(b1-4)GlcNAc(b1-3)Gal(b1-4)GlcNAc(b1-3)Gal(b1-4)GlcNAc(b1-2)Man(a1-6)]Man(b1-4)GlcNAc(b1-4)[Fuc(a1-6)]GlcNAc
Procedure, shortened: as §1

[14] = molecular target: GlcNAc(b1-3)Gal(b1-4)GlcNAc(b1-3)Gal(b1-4)GlcNAc(b1-3)Gal(b1-4)GlcNAc(b1-3)Gal(b1-4)GlcNAc(b1-2)[GlcNAc(b1-3)Gal(b1-4)GlcNAc(b1-3)Gal(b1-4)GlcNAc(b1-3)Gal(b1-4)GlcNAc(b1-3)Gal(b1-4)GlcNAc(b1-6)]Man(a1-6)[GlcNAc(b1-3)Gal(b1-4)GlcNAc(b1-3)Gal(b1-4)GlcNAc(b1-3)Gal(b1-4)GlcNAc(b1-3)Gal(b1-4)GlcNAc(b1-2)Man(a1-3)]Man(b1-4)GlcNAc(b1-4)[Fuc(a1-6)]GlcNAc
Procedure, shortened: as §1

[15] = molecular target: GlcNAc(b1-3)Gal(b1-4)GlcNAc(b1-3)Gal(b1-4)GlcNAc(b1-3)GalNAc
Procedure, shortened: as §1

[16] = molecular target: GlcNAc(b1-3)Gal(b1-4)GlcNAc(b1-3)GalNAc
Procedure, shortened: as §1

[17] = molecular target: GlcNAc(b1-3)Gal(b1-4)GlcNAc(b1-3)[GlcNAc(b1-3)Gal(b1-4)GlcNAc(b1-3)]GalNAc
Procedure, shortened: as §1

[18] = molecular target: GlcNAc(b1-3)Gal(b1-4)GlcNAc(b1-6)[Gal(b1-3)]GalNAc
Procedure, shortened: as §1

[19] = molecular target: GlcNAc(b1-3)Gal(b1-4)GlcNAc(b1-6)[GlcNAc(b1-3)Gal(b1-3)]GalNAc
Procedure, shortened: as §1

[20] = molecular target: GlcNAc(b1-3)Gal(b1-4)GlcNAc(b1-6)[GlcNAc(b1-3)]Gal(b1-4)GlcNAc
Procedure, shortened: as §1

GlcNAc(b1-3)GalNAc = molecular target: GlcNAc(b1-3)GalNAc
Procedure, shortened: as §1

GlcNAc(b1-3)Man = molecular target: GlcNAc(b1-3)Man
Procedure, shortened: as §1

[21] = molecular target: GlcNAc(b1-3)[GlcNAc(b1-4)][GlcNAc(b1-6)]GlcNAc
Procedure, shortened: as §1

[22] = molecular target: GlcNAc(b1-3)[GlcNAc(b1-6)]Gal(b1-4)GlcNAc
Procedure, shortened: as §1

[23] = molecular target: GlcNAc(b1-3)[GlcNAc(b1-6)]GalNAc
Procedure, shortened: as §1

[24] = molecular target: GlcNAc(b1-4)Gal(b1-4)GlcNAc
Procedure, shortened: as §1

GlcNAc(b1-4)GlcNAc = molecular target: GlcNAc(b1-4)GlcNAc
Procedure, shortened: as §1

[25] = molecular target: GlcNAc(b1-4)GlcNAc(b1-4)GlcNAc
Procedure, shortened: as §1

[26] = molecular target: GlcNAc(b1-4)GlcNAc(b1-4)GlcNAc(b1-4)GlcNAc(b1-4)GlcNAc
Procedure, shortened: as §1

[27] = molecular target: GlcNAc(b1-4)GlcNAc(b1-4)GlcNAc(b1-4)GlcNAc(b1-4)GlcNAc(b1-4)GlcNAc
Procedure, shortened: as §1

[28] = molecular target: GlcNAc(b1-4)[GlcNAc(b1-6)]GalNAc
Procedure, shortened: as §1

[29] = molecular target: GlcNAc(b1-6)Gal(b1-4)GlcNAc
Procedure, shortened: as §1

GlcNAc(b1-6)GalNAc = molecular target: GlcNAc(b1-6)GalNAc
Procedure, shortened: as §1

[30] = molecular target: GlcNAc6S(b1-3)Gal(b1-4)GlcNAc
Procedure, shortened: as §1

Kdn(a2-3)Gal(b1-3)GalNAc = molecular target: Kdn(a2-3)Gal(b1-3)GalNAc
Procedure, shortened: as §1

Kdn(a2-3)Gal(b1-3)GlcNAc = molecular target: Kdn(a2-3)Gal(b1-3)GlcNAc
Procedure, shortened: as §1

Kdn(a2-3)Gal(b1-4)Glc = molecular target: Kdn(a2-3)Gal(b1-4)Glc
Procedure, shortened: as §1

Kdn(a2-3)Gal(b1-4)GlcNAc = molecular target: Kdn(a2-3)Gal(b1-4)GlcNAc
Procedure, shortened: as §1

[31] = molecular target: Kdn(a2-3)Gal(b1-4)[Fuc(a1-3)]GlcNAc
Procedure, shortened: as §1

Kdn(a2-6)Gal(b1-4)GlcNAc = molecular target: Kdn(a2-6)Gal(b1-4)GlcNAc
Procedure, shortened: as §1

[32] = molecular target: Man(a1-2)Man(a1-2)Man(a1-3)Man
Procedure, shortened: as §1

[33] = molecular target: Man(a1-2)Man(a1-2)Man(a1-6)[Man(a1-3)]Man
Procedure, shortened: as §1

Man(a1-2)Man(a1-3)Man = molecular target: Man(a1-2)Man(a1-3)Man
Procedure, shortened: as §1

[34] = molecular target: Man(a1-2)Man(a1-3)[Man(a1-2)Man(a1-6)]Man
Procedure, shortened: as §1

[35] = molecular target: Man(a1-2)Man(a1-3)[Man(a1-2)Man(a1-6)]Man(a1-6)[Man(a1-2)Man(a1-2)Man(a1-3)]Man
Procedure, shortened: as §1

B1: ACA (Amaranthus caudatus) (protein)
chain: MAGLPVIMCLKSNNNQKYLRYQSDNIQQYGLLQFSADKILDPLAQFEVEPSKTYDGLVHIKSRYTNKYLVRWSPNHYWITASANEPDENKSNWACTLFKPLYVEEGNMKKVRLLHVQLGHYTQNYTVGGSFVSYLFAESSQIDTGSKDVFHVIDWKSIFQFPKRYVTFKGNNGKYLGVITINQLPCLQFGYDNLNDPKVAHEMFVTSNGTICIKSTYMNKFWRLSTDDWILVDGNDPRETNEAAALFRSDVHDFNVISLLNMQKTWFIKRFTSGKPGFINCMNAATQNVDETAILEIIELGSNN
- glycan array binding signal (z-score) [1]: -0.352
- glycan array binding signal (z-score) [2]: -0.384
- glycan array binding signal (z-score) [3]: -0.023
- glycan array binding signal (z-score) [4]: 0.85
- glycan array binding signal (z-score) [5]: -0.26
- glycan array binding signal (z-score) [6]: 3.43
- glycan array binding signal (z-score) [7]: 1.65
- glycan array binding signal (z-score) [8]: 0.359
- glycan array binding signal (z-score) [9]: -0.352
- glycan array binding signal (z-score) [10]: 1.19
- glycan array binding signal (z-score) [11]: 0.586
- glycan array binding signal (z-score) [12]: -0.188
- glycan array binding signal (z-score) [13]: 0.213
- glycan array binding signal (z-score) [14]: 0.536
- glycan array binding signal (z-score) [15]: 0.03
- glycan array binding signal (z-score) [16]: -0.527
- glycan array binding signal (z-score) [17]: -0.435
- glycan array binding signal (z-score) [18]: -0.076
- glycan array binding signal (z-score) [19]: -0.475
- glycan array binding signal (z-score) [20]: -0.004
- glycan array binding signal (z-score) (GlcNAc(b1-3)GalNAc): -0.167
- glycan array binding signal (z-score) (GlcNAc(b1-3)Man): -0.096
- glycan array binding signal (z-score) [21]: -0.364
- glycan array binding signal (z-score) [22]: -0.519
- glycan array binding signal (z-score) [23]: -0.183
- glycan array binding signal (z-score) [24]: -0.887
- glycan array binding signal (z-score) (GlcNAc(b1-4)GlcNAc): 0.151
- glycan array binding signal (z-score) [25]: -0.316
- glycan array binding signal (z-score) [26]: -0.138
- glycan array binding signal (z-score) [27]: -0.162
- glycan array binding signal (z-score) [28]: -0.14
- glycan array binding signal (z-score) [29]: -0.137
- glycan array binding signal (z-score) (GlcNAc(b1-6)GalNAc): -0.116
- glycan array binding signal (z-score) [30]: -0.092
- glycan array binding signal (z-score) (Kdn(a2-3)Gal(b1-3)GalNAc): 1.78
- glycan array binding signal (z-score) (Kdn(a2-3)Gal(b1-3)GlcNAc): 0.132
- glycan array binding signal (z-score) (Kdn(a2-3)Gal(b1-4)Glc): -0.204
- glycan array binding signal (z-score) (Kdn(a2-3)Gal(b1-4)GlcNAc): -0.428
- glycan array binding signal (z-score) [31]: -0.028
- glycan array binding signal (z-score) (Kdn(a2-6)Gal(b1-4)GlcNAc): 0.346
- glycan array binding signal (z-score) [32]: -0.428
- glycan array binding signal (z-score) [33]: -0.246
- glycan array binding signal (z-score) (Man(a1-2)Man(a1-3)Man): -0.183
- glycan array binding signal (z-score) [34]: -0.25
- glycan array binding signal (z-score) [35]: -0.266
